In ChEMBL document CHEMBL5308541, “MAIP: An Open-Source Tool to Enrich High-Throughput Screening Output and Identify Novel, Druglike Molecules with Antimalarial Activity” (ACS Med Chem Lett, 2023):
In all, about 4,800 compounds went through this assay and about 420 (8.8%) showed an effect of 50% or more. Some of the results follow.

system: Plasmodium falciparum; assay: Confirmatory screen in NF54 nanoGlo assay, in single point, at 2uM, 72h; type: functional, Erythrocyte; details: timepoint 72 hour

In order of falling “% Inhibition” value:
1. Cc1cnccc1N1CCCN(Cc2ccccc2OCCN2CCN(C)CC2)CC1  99%
2. COc1ccc2c(N3CC[C@H](CN4CCCC4)C3)ccnc2c1  99%
3. CN1CCC(N(C)C[C@H](Nc2ncnc3ccccc23)c2ccccc2)CC1  99%
4. CC(C)CCOc1ccc2[nH]c(-c3cc(N4CCC[C@@H]4CS(C)(=O)=O)ccn3)cc2c1  99%
5. CN(CCCn1ccnc1)c1ccnc2cc(Br)ccc12  99%
6. COCCN1CCC[C@@]2(CCN(c3ccnc4cc(Cl)ccc34)C2)C1  99%
7. CCOc1cc2nccc(N3C[C@H]4CN(C)C[C@H]4C3)c2cc1OCC  98%
8. CCNc1nc(C)cc(Nc2ccc(NC(=O)Nc3ccc(F)cc3F)cc2)n1  98%
9. Cc1ccc(-c2cc(C(=O)NC3CCN(C4CCN(C)CC4)CC3)n[nH]2)cc1C  98%
10. CCN1CCN([C@H]2CCN(c3ccnc4ccncc34)C2)CC1  97%
11. Brc1ccc2[nH]c3c(c2c1)CCCC3NC1CCc2[nH]cnc2C1 (stereo not given)  97%
12. Cc1cc(N2CCC(NC3CCCC3Cc3ccc(F)cc3)CC2)nc(N)n1 (stereo not given)  96%
13. Cc1c(CN2CCC(O)(Cn3ccnc3)CC2)[nH]c2c(Cl)cccc12  96%
14. CCOc1cc(C(=O)NC2CCN(CC3CCCC3)CC2)cc(-c2ccccc2)c1OC  95%
15. Cc1noc(-c2ccnc(NC[C@@H](c3ccccn3)N3CCOCC3)c2)n1  93%
16. Cc1ccc2nc(NC[C@H]3CCN(C4CC4)C3)cc(C)c2c1  93%
17. O=C(NC1CCN(CCOc2ccc(Cl)cc2)CC1)c1c[nH]c2ccncc2c1=O  92%
18. Cc1cc(O)c(Cl)cc1-c1cccc2c(N)ccnc12  91%
19. CCN(Cc1[nH]c2ccc(Cl)cc2c1C)CC1CCN(C2CCN(C)CC2)CC1  89%
20. Cc1ocnc1CNC[C@H](O)c1ccc(Cl)c(Cl)c1  89%
21. Fc1ccc(-n2cc(CNCCC3CCN(c4ccncc4)CC3)cn2)cc1  88%
22. COc1ccc2c(C)cc(NCCCN3CCC[C@H](C(N)=O)C3)nc2c1  87%
23. CN1CCC(Oc2ccc(NC(=O)c3cn4ccnc4s3)cn2)CC1  86%
24. CN(C)C1CCN(CCN[C@H]2CCc3ccc(F)cc32)CC1  85%
25. COc1cc2nc(NCC3(N4CCN(C)CC4)CCCC3)cc(C)c2cc1OC  84%
26. Oc1ccc(OC(F)(F)F)cc1-c1ccc2nccn2n1  83%
27. c1ccc(CNc2ccc(-c3noc(C45CCCN(CCC4)C5)n3)cn2)cc1  82%
28. Clc1ccc2[nH]c3c(c2c1)CCCC3NC1CCN(C2CCOC2)CC1 (stereo not given)  81%
29. N#Cc1ccc(N2C[C@H](COCC3CC3)C3(CCN(Cc4cccc(O)c4)CC3)C2)cc1C(F)(F)F  80%
30. COc1ccc2c(O)c(Br)c(C)nc2c1  78%
31. Nc1ccnc2ccc(-c3ccc(C(=O)NCC4CCOCC4)cc3)cc12  77%
32. CCCN1CCC(Nc2cc(C)nc3ccccc23)CC1  77%
33. c1ccc2c(CNCCC3CCN(c4ccncc4)CC3)csc2c1  77%
34. Cc1cnccc1NCCNCc1ccc(OC(C)C)c(Cl)c1  73%
35. COc1ccc2cc(NC(=O)c3cc(-c4c(C)nn(C)c4C)[nH]n3)cnc2c1  73%
36. OC[C@H](CNCc1cc2ccc(F)cc2[nH]1)c1ccccc1Cl  72%
37. Cc1sc2nc(-c3ccccn3)nc(NCCc3nccn3C)c2c1-c1ccccc1  71%
38. Cn1nnc(C(=O)N2CCCCC23CCCCCC3)n1  68%
39. Cc1nc(N2CCN(C)CC2)cc(N2CCN(S(=O)(=O)c3ccccc3C(F)(F)F)CC2)n1  67%
40. CN1CCC(N(Cc2ccccc2)C(=O)c2cc3cnccc3[nH]2)CC1  61%
41. O[C@@]1(c2c[nH]nn2)CCN(c2ccnc3cc(Cl)ccc23)C1  59%
42. C[C@H]1CCCN(CCNC(=O)c2ccc(-c3ccc4c(=O)[nH]ccc4c3)cc2)C1  58%
43. NCCCCc1c(-c2cccnc2)[nH]c2c(Cl)cc(Cl)cc12  55%
44. CN(c1ccccc1)c1ccc(CN2CCN([C@H]3CCNC3)CC2)cc1  54%
45. Cn1cc(-c2cncc(C(=O)NC3CCN(c4cccc(F)c4)CC3)c2)cn1  51%
46. Cc1ccc(-c2nnc(Nc3ccccc3)c3ccccc23)cc1CN1C(=O)c2ccccc2C1=O  49%
47. CCN1CCC(N2CCC(C(=O)NCCc3ccc(OC(F)(F)F)cc3)CC2)CC1  48%
48. N[C@H]1CC[C@@H](NC2CCN(c3ccc(F)c(F)c3)CC2)CC1  45%
49. COc1ccc(OC2CCN(C3CCCC3)CC2)c(C(=O)NCc2cccc3[nH]ccc23)c1  44%
50. Nc1ccc(Nc2ccc(F)cc2)c2ccncc12  44%
51. CNc1nc(C)cc(N[C@@H]2COc3ccccc3C2)n1  41%
52. Cc1cc(C)c(CN2CCN(C)CC2)cc1CNCCCn1ccnc1C  38%
53. O[C@H]1CCN(Cc2cccc(NCc3cn4ccnc4s3)c2)C1  38%
54. CCn1cc(-c2cccc(C(=O)N[C@@H](C)CN3CCc4ccccc4C3)c2)cn1  38%
55. Brc1cccc(NCCNC2CCN(Cc3cccnc3)CC2)c1  36%
56. Cc1nc(-c2ccccn2)nc(NC2CCN(CC(F)F)CC2)c1C  35%
57. COc1ccc(-c2cc(-c3ccccc3O)n([C@@H]3C(=O)Nc4ccc(Br)cc43)n2)cc1  31%
58. Oc1cccc2c1CCC[C@@H]2NCc1ccc2occc2c1  29%
59. CN(Cc1cn(CC(N)=O)c2ccccc12)CC1CCN(CCc2ccc(F)cc2)CC1  29%
60. O=C(Nc1cncnc1N1CCCC1)c1cc(F)cc2[nH]cnc12  28%
61. CC(C)(C)n1ncc2c(NCc3ccc4cccnc4c3O)ncnc21  27%
62. CC(C)c1ccc(CN2CCC[C@@](O)(CNCCN3CCNCC3)C2=O)cc1  26%
63. C[C@@H](c1ccc(-c2c(-c3ccccc3)ncn2CCCN(C)C)cc1)N(C)C  25%
64. Cc1nc2ccc(Oc3ccccc3)cc2c(O)c1CN(C)C1CCN(C)CC1  22%
65. C[C@@H](c1cccc(-c2nc3cc(C#N)ccc3[nH]2)c1)N(C)C  18%
66. CCOc1ccc2nc(N3CCCN(Cc4c(C)nn(CC)c4C)CC3)nc(C)c2c1  17%
67. COc1ccc(-c2cccc3[nH]ccc23)nn1  12%
68. COCCN1CCC[C@H](CNCc2cnn(-c3ccc4ccccc4c3)c2)C1  12%
69. CCc1cc(NCCc2nc3cc(F)ccc3[nH]2)nc(-c2ccccn2)n1  11%
70. Cc1ccc2nccc(N3CCC(N4CCC(O)CC4)CC3)c2c1  10%
71. CCCN(CCN1CCN(CC)CC1)c1nc(-c2ccccn2)nc2c1CCC2  6%
72. CN(C)CCN1CCC(CNCc2ccc3ncccc3c2)CC1  5%
73. Cc1cnc(NC2CC(=O)N3CCCCC23)nc1NC1CC(=O)N2CCCCC12 (stereo not given)  3%
74. CCN(C)CC1CCN(c2nc(NCCOC)nc(N3CCC(CN(C)CC)C3)n2)C1 (stereo not given)  1%
75. CNC(=O)c1ccc(C(=O)Nc2nc(C3(C)CC3)ns2)cn1  1%
76. CN1CCC(CNC2CC3CC(C2)N(C(=O)OC(C)(C)C)C3)CC1 (stereo not given)  0%
77. c1cc(CN2CCN(c3cc(N4CCN(Cc5ccncc5)CC4)ncn3)CC2)ccn1  0%
78. Cc1cc(N2CC3COCCC3(C(=O)O)C2)nc2ccc(F)cc12 (stereo not given)  -2%
79. c1cc(CNC2CCN(C[C@H]3CCOC3)CC2)c2cc[nH]c2c1  -7%
80. c1ccc2c(c1)CN(c1ncnc3[nH]ccc13)CC1(CCOCC1)O2  -10%
